B1: anti-IL-4/IL-13 IgG1 bispecific antibody (knobs-into-holes) (bispecific antibody)
heavy 1: EVQLVESGGGLVQPGGSLRLSCAASGYTFTDYSMHWVRQAPGKGLEWVVWINTETGEPTYADSVKGRFTISLDNSKNTAYLQMNSLRAEDTAVYYCARGGIFYGMDYWGQGTLVTVSSASTKGPSVFPLAPSSKSTSGGTAALGCLVKDYFPEPVTVSWNSGALTSGVHTFPAVLQSSGLYSLSSVVTVPSSSLGTQTYICNVNHKPSNTKVDKKV[human IgG1 Fc with changes not printed]
light 1: DIQMTQSPSSLSASVGDRVTITCKASQSVINDAAWYQQKPGKAPKLLIYYTSHRYTGVPSRFSGSGSGTDFTLTISSLQPEDFATYYCQQDYTSPWTFGQGTKVEIKRTVAAPSVFIFPPSDEQLKSGTASVVCLLNNFYPREAKVQWKVDNALQSGNSQESVTEQDSKDSTYSLSSTLTLSKADYEKHKVYACEVTHQGLSSPVTKSFNRGEC
heavy 2: EVTLRESGPALVKPTQTLTLTCTVSGFSLSAYSVNWIRQPPGKALEWLAMIWGDGKIVYNSALKSRLTISKDTSKNQVVLTMTNMDPVDTATYYCAGDGYYPYAMDNWGQGSLVTVSSASTKGPSVFPLAPSSKSTSGGTAALGCLVKDYFPEPVTVSWNSGALTSGVHTFPAVLQSSGLYSLSSVVTVPSSSLGTQTYICNVNHKPSNTKVDKKV[human IgG1 Fc with changes not printed]
light 2: DIVLTQSPDSLSVSLGERATINCRASKSVDSYGNSFMHWYQQKPGQPPKLLIYLASNLESGVPDRFSGSGSGTDFTLTISSLQAEDVAVYYCQQNNEDPRTFGGGTKVEIKRTVAAPSVFIFPPSDEQLKSGTASVVCLLNNFYPREAKVQWKVDNALQSGNSQESVTEQDSKDSTYSLSSTLTLSKADYEKHKVYACEVTHQGLSSPVTKSFNRGEC
B2: anti-IL-4/IL-13 IgG4 bispecific antibody (knobs-into-holes, S228P, wild-type R409) (bispecific antibody)
heavy 1: EVQLVESGGGLVQPGGSLRLSCAASGYTFTDYSMHWVRQAPGKGLEWVVWINTETGEPTYADSVKGRFTISLDNSKNTAYLQMNSLRAEDTAVYYCARGGIFYGMDYWGQGTLVTVSSASTKGPSVFPLAPCSRSTSESTAALGCLVKDYFPEPVTVSWNSGALTSGVHTFPAVLQSSGLYSLSSVVTVPSSSLGTKTYTCNVDHKPSNTKVDKRVESKYGPPCPPCPAPEFLGGPSVFLFPPKPKDTLMISRTPEVTCVVVDVSQEDPEVQFNWYVDGVEVHNAKTKPREEQFNSTYRVVSVLTVLHQDWLNGKEYKCKVSNKGLPSSIEKTISKAKGQPREPQVYTLPPSQEEMTKNQVSLSCAVKGFYPSDIAVEWESNGQPENNYKTTPPVLDSDGSFFLVSRLTVDKSRWQEGNVFSCSVMHEALHNHYTQKSLSLSLGK
light 1: B1 light 1
heavy 2: EVTLRESGPALVKPTQTLTLTCTVSGFSLSAYSVNWIRQPPGKALEWLAMIWGDGKIVYNSALKSRLTISKDTSKNQVVLTMTNMDPVDTATYYCAGDGYYPYAMDNWGQGSLVTVSSASTKGPSVFPLAPCSRSTSESTAALGCLVKDYFPEPVTVSWNSGALTSGVHTFPAVLQSSGLYSLSSVVTVPSSSLGTKTYTCNVDHKPSNTKVDKRV[human IgG4 Fc with S228P T366W (EU numbers) not printed]
light 2: B1 light 2

Target: human IL-4 + human IL-13 (both cytokines added together)
Assay: cell-based or functional assay

IC50 of TF-1 proliferation inhibition assay (IL-4 + IL-13)	Binder
0.07 µg/mL	B1
0.05 µg/mL	B2

— US20160207995A1
